Assay results published in the supplement of paper PMC3334620.
In all, about 33,000 sequences were measured (“E-score (-0.5 to 0.5)”: median about -0.012, highest 2% from about 0.29 on). Some of the results follow.

What follows are sequences tested against T1, Ybr033w (UniProt P38073) (assay: PBM E-score (8-mer binding enrichment) (E-score (-0.5 to 0.5)); higher = stronger / more preferred TF binding; most listed sequences are background and not binding sites). Settings: protein concentration: 200 nM; construct: GST-full length.
T1 sequence: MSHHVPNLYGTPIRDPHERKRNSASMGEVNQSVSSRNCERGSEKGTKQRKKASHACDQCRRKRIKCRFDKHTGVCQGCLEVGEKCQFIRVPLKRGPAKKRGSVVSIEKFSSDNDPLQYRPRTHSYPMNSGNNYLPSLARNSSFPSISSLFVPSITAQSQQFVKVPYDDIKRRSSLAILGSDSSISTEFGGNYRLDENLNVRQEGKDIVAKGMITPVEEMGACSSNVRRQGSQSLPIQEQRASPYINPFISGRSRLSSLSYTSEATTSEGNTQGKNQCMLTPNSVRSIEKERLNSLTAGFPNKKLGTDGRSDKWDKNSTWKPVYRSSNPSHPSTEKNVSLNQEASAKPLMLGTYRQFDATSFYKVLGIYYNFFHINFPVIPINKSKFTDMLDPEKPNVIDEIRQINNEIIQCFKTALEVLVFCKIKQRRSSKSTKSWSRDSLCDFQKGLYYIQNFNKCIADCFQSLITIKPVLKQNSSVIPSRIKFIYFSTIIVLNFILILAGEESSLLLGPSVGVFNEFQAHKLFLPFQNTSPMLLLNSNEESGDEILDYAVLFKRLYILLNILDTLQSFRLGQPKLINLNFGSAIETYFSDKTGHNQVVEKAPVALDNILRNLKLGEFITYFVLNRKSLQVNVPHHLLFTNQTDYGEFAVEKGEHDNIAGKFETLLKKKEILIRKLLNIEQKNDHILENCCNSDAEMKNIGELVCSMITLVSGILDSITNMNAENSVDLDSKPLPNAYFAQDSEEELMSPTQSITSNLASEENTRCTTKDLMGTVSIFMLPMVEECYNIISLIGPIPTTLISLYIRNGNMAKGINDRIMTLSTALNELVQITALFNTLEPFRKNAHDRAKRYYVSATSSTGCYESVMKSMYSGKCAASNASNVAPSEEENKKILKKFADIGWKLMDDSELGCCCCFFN
Experimental: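 Universal 'all 10-mer' protein binding microarrays (Agilent AMADID 015681) probed with GST-tagged S. cerevisiae TFs (full-length or DBD) made by in vitro transcription/translation (PURExpress), about 100-200 nM. Bound TF was detected with fluorescent anti-GST. Each ungapped 8-mer (which stands for itself and its reverse complement) is scored by the PBM enrichment score (E-score), a modified Wilcoxon-Mann-Whitney statistic from -0.5 to +0.5, computed with the Universal PBM Analysis Suite. Scale: above 0.35 generally sequence-specific binding.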

Row | Sequence | PBM E-score
1 | AAATCTAT | 0.26
2 | GCCCATAC | -0.121
3 | ATCCCCGC | -0.176
4 | AAGCCAGG | -0.128
5 | GATTATAC | 0.208
6 | ATAGGTGA | 0.0541
7 | CCGACCAG | -0.0851
8 | TGCTGCAA | 0.0605
9 | CTACTCGC | -0.131
10 | CAGAGCAA | -0.00344
11 | CCGGAACC | -0.16
12 | CTGGTGCA | -0.31
13 | CATGACTC | -0.109
14 | AAGACATG | -0.13
15 | CAGCGCAA | -0.112
16 | GGCCCAAA | -0.108
17 | ACTGGACC | -0.196
18 | ATCATGAA | 0.171
19 | GAATGTGC | -0.0303
20 | CGTAAGCA | -0.192
21 | AGATAAAC | 0.216
22 | CAGTCCAG | -0.238
23 | CGGGCCAG | -0.274
24 | CTTGGGGC | -0.271
25 | CCATGTGC | -0.00281

Row | Sequence | PBM E-score
26 | AATGCAGT | 0.0551
27 | ACTGGATG | -0.0668
28 | AGCCAGGG | -0.362
29 | AGCCTCTC | -0.319
30 | CAGCAGCG | -0.157
31 | CCTGCGAC | -0.231
32 | CCACACCG | -0.125
33 | AGTTTAAA | 0.247
34 | ATGAGGGA | -0.0872
35 | AGATGTTG | -0.145
36 | AGCTAGCA | -0.0795
37 | ACAGTTAT | 0.0867
38 | GACGCTCA | -0.0773
39 | GCAGAAGC | -0.105
40 | AGGTCGGG | -0.206
41 | GACCCCAA | -0.189
42 | TCACATAA | -0.00689
43 | ACAATGTA | 0.0452
44 | GCCCGAGC | -0.192
45 | ATCGTTAC | 0.0005
46 | GAGAGTAA | 0.234
47 | ACCACGCT | -0.118
48 | ATAGGTTG | 0.0182
49 | GCAATACA | 0.147
50 | CAAGATGC | 0.0894

Row | Sequence | PBM E-score
51 | ATATGCTG | -0.00315
52 | GCCCGTTA | -0.266
53 | CCCCCATA | -0.348
54 | GCTTCGTA | 0.0721
55 | CATCAGGC | -0.0166
56 | ACATCGCA | -0.126
57 | CAAGTATC | 0.0111
58 | ATAAAATC | 0.226
59 | ACGAGGTG | -0.175
60 | AGTCACTA | -0.0279
61 | AAGCGCTA | 0.0297
62 | AATTAACT | 0.219
63 | AAGCGTAT | 0.0673
64 | CTCTACGC | -0.0464
65 | CCTCGCCG | -0.354
66 | CGCGGGCA | 0.0744
67 | CAGCCTAC | -0.00296
68 | ACGGGCGC | -0.125
69 | AAAGTCAG | -0.0675
70 | CTTACGAC | -0.103
71 | CGCATTAG | -0.165
72 | CGTGCGAG | 0.00923
73 | AAAACAAG | 0.174
74 | CAAACTGC | 0.151
75 | GCCCCTAA | -0.251

Row | Sequence | PBM E-score
76 | AGCACGTA | -0.0864
77 | CAGTGTGG | -0.227
78 | GATACGCC | -0.0158
79 | ACGCGTAC | 0.0356
80 | CTCGGTTC | -0.253
81 | AGAGTGCT | 0.0308
82 | AAGTATTC | 0.162
83 | AACGCCTT | -0.185
84 | ATTTGGCC | -0.0178
85 | CAGCTCAA | -0.0471
86 | CGGCGTTA | -0.0127
87 | ATCATAAT | 0.182
88 | GGATATAC | 0.205
89 | ACAGCTCA | -0.146
90 | TACGTAGA | 0.0979
91 | ATAGACAG | 0.0501
92 | CATTCCGC | -0.0174
93 | AACTTGAA | 0.251
94 | CTTTCTGA | 0.233
95 | AAATCACC | 0.243
96 | AATCCGCT | 0.00276
97 | GTCAAAGA | 0.133
98 | GCACAGGA | -0.0603
99 | CCCTGCGA | -0.224
100 | CGTCGGCA | -0.101

Row | Sequence | PBM E-score
101 | CGTCGCAA | 0.0396
102 | CGGCGTGA | -0.0361
103 | AGGGTGCA | -0.179
104 | CCTACCAA | 0.176
105 | ATTCACGC | -0.107
106 | ATGATGCC | -0.0229
107 | AACCGGGC | -0.152
108 | GAAGCCCA | -0.121
109 | GATGTACC | 0.101
110 | GACTACGA | -0.0491
111 | AGCTGTAA | -0.00663
112 | CCGGTGCA | -0.213
113 | TATGGTCA | -0.0118
114 | CTCATATC | -0.048
115 | CCTTTGAG | -0.0839
116 | CCGGCAGG | -0.317
117 | CCCTTCAG | -0.197
118 | ATCTCAGA | -0.0847
119 | CACCGATA | 0.00975
120 | AGTTATGG | 0.163
121 | GATAGACC | -0.0938
122 | CACCAGGC | -0.18
123 | ATAAAAAC | 0.279
124 | CACCTAAG | 0.0973
125 | TATAAGGA | 0.224

Row | Sequence | PBM E-score
126 | TAAGTAGA | 0.0752
127 | ATTGAGCC | 0.0581
128 | CCTCCTAA | -0.217
129 | CAGTTTGC | -0.0588
130 | CATAAAGG | -0.0374
131 | CAGTCTCC | -0.116
132 | ATTGCCAC | 0.0272
133 | AGCGATTA | 0.159
134 | GAGCGTAC | -0.0539
135 | GAACGTTC | -0.244
136 | AGCCGAAG | 0.00274
137 | CCGTGGCC | -0.356
138 | CAGGACCA | -0.106
139 | ATCCATGA | -0.0662
140 | CTGAAAAG | -0.0156
141 | CTGAGCAA | -0.0556
142 | CCTTGCAC | 0.0587
143 | AGGCTCCC | -0.316
144 | CAGATCTC | -0.0913
145 | ATTTAGGC | 0.117
146 | ACCAAAAA | 0.332
147 | AGCACACC | -0.206
148 | AACCAAAC | -0.0349
149 | GAGTGAAA | 0.129
150 | GACGTCTC | -0.227

Row | Sequence | PBM E-score
151 | ATCGTGCC | -0.018
152 | ATCTAGGG | 0.00893
153 | TCCAACCA | 0.0305
154 | ATTTGGGC | -0.0275
155 | GCCGAGGC | -0.055
156 | GGTTAAAC | 0.207
157 | CGTAGTTC | -0.0769
158 | GCAAACCA | 0.0602
159 | ATCGCTTC | 0.0987
160 | CTTAAGGC | -0.0414
161 | AGCGAGAT | 0.114
162 | CGAGCACG | -0.226
163 | ACCCCGGT | -0.195
164 | ATCCTAGG | -0.139
165 | CCTACAGA | 0.00211
166 | AATGGGGT | -0.1
167 | CTGGAGCC | -0.285
168 | GCCTCAAA | -0.0911
169 | AACCAAGG | 0.0409
170 | AAAGGCGT | -0.181
171 | CTATGCCA | -0.0681
172 | GCTAAACA | 0.0905
